The record followed here is US11685745B2, “Substituted benzoxazole and benzofuran compounds as PDE7 inhibitors” (Dart NeuroScience, LLC, priority 2017, dated 2023).

Each structure is given as a SMILES string.

The target in this assay is N-terminal truncated recombinant human PDE7B enzyme (Homo sapiens (Human), UniProt Q9NP56). The assay is described as follows: biochemical.
With `CC1(CNCc2nc3cc(Cl)c4c(c3o2)C2(CCCCC2)NC(=O)N4)COC1` [Example 86, 5-Chloro-2-({[(3-methyloxetan-3-yl)methyl]amino}methyl)-7,8-dihydro-6H-spiro[[1,3]oxazolo[5,4-f]quinazoline-9,1′-cyclohexane]-7-one], the IC50 was in the range of 10 to 100 nM. For `O=C1Nc2c(Cl)cc3nc(CN4CC5CC4CO5)oc3c2C2(CCCCC2)N1` (stereo not shown) [Example 87, 5-Chloro-2-{2-oxa-5-azabicyclo[2.2.1]heptan-5-ylmethyl}-7,8-dihydro-6H-spiro[[1,3]oxazolo[5,4-f]quinazoline-9,1′-cyclohexane]-7-one] the value was 10 to 100 nM; for `CN(Cc1nc2cc(Cl)c3c(c2o1)C1(CCCCC1)NC(=O)N3)CC(F)(F)F` [Example 88, 5-Chloro-2-{[methyl(2,2,2-trifluoroethyl)amino]methyl}-7,8-dihydro-6H-spiro[[1,3]oxazolo[5,4-f]quinazoline-9,1′-cyclohexane]-7-one], 10 to 100 nM.

`O=C1Nc2c(Cl)cc3nc(CNCC4COC4)oc3c2C2(CCCCC2)N1` [Example 89, 5-Chloro-2-{[(oxetan-3-ylmethyl)amino]methyl}-7,8-dihydro-6H-spiro[[1,3]oxazolo[5,4-f]quinazoline-9,1′-cyclohexane]-7-one]: the IC50 was in the range of 10 to 100 nM. The figure for `O=C1CCN(Cc2nc3cc(Cl)c4c(c3o2)C2(CCCCC2)NC(=O)N4)CC1` [Example 90, 5-Chloro-2-[(4-oxopiperidin-1-yl)methyl]-7,8-dihydro-6H-spiro[[1,3]oxazolo[5,4-f]quinazoline-9,1′-cyclohexane]-7-one] is 100 to 1000 nM; for `COc1ccccc1CNCc1nc2cc(Cl)c3c(c2o1)C1(CCCCC1)NC(=O)N3` [Example 91, 5-Chloro-2-({[(2-methoxyphenyl)methyl]amino}methyl)-7,8-dihydro-6H-spiro[[1,3]oxazolo[5,4-f]quinazoline-9,1′-cyclohexane]-7-one] it is 10 to 100 nM; for `COc1ccc(CNCc2nc3cc(Cl)c4c(c3o2)C2(CCCCC2)NC(=O)N4)c(OC)c1` [Example 92, 5-Chloro-2-({[(2,4-dimethoxyphenyl)methyl]amino}methyl)-7,8-dihydro-6H-spiro[[1,3]oxazolo[5,4-f]quinazoline-9,1′-cyclohexane]-7-one] it is 10 to 100 nM. For `CC(C)N1CCN(Cc2nc3cc(Cl)c4c(c3o2)C2(CCCCC2)NC(=O)N4)CC1` [Example 93, 5-Chloro-2-{[4-(propan-2-yl)piperazin-1-yl]methyl}-7,8-dihydro-6H-spiro[[1,3]oxazolo[5,4-f]quinazoline-9,1′-cyclohexane]-7-one] the value was 100 to 1000 nM; for `CN1CCN(Cc2nc3cc(Cl)c4c(c3o2)C2(CCCCC2)NC(=O)N4)CC1(C)C` [Example 94, 5-Chloro-2-[(3,3,4-trimethylpiperazin-1-yl)methyl]-7,8-dihydro-6H-spiro[[1,3]oxazolo[5,4-f]quinazoline-9,1′-cyclohexane]-7-one], 100 to 1000 nM; for `O=C1Nc2c(Cl)cc3nc(CN4CCCCC4CO)oc3c2C2(CCCCC2)N1` (stereo not shown) [Example 95, 5-Chloro-2-{[2-(hydroxymethyl)piperidin-1-yl]methyl}-7,8-dihydro-6H-spiro[[1,3]oxazolo[5,4-f]quinazoline-9,1′-cyclohexane]-7-one], 100 to 1000 nM. For `O=C1Nc2c(Cl)cc3nc(CNC4(CO)CCCC4)oc3c2C2(CCCCC2)N1` [Example 96, 5-Chloro-2-({[1-(hydroxymethyl)cyclopentyl]amino}methyl)-7,8-dihydro-6H-spiro[[1,3]oxazolo[5,4-f]quinazoline-9,1′-cyclohexane]-7-one] the value was 100 to 1000 nM. In the case of `O=C1Nc2c(Cl)cc3nc(CN4CCC[C@@H]4CO)oc3c2C2(CCCCC2)N1` [Example 97, 5-Chloro-2-{[(2R)-2-(hydroxymethyl)pyrrolidin-1-yl]methyl}-7,8-dihydro-6H-spiro[[1,3]oxazolo[5,4-f]quinazoline-9,1′-cyclohexane]-7-one], the IC50 was 100 to 1000 nM.

As to `CC1CCCCN1Cc1nc2cc(Cl)c3c(c2o1)C1(CCCCC1)NC(=O)N3` (stereo not shown) [Example 98, 5-Chloro-2-[(2-methylpiperidin-1-yl)methyl]-7,8-dihydro-6H-spiro[[1,3]oxazolo[5,4-f]quinazoline-9,1′-cyclohexane]-7-one], the IC50 lay within 100 to 1000 nM. The figure for `CC(C)CC1CN(Cc2nc3cc(Cl)c4c(c3o2)C2(CCCCC2)NC(=O)N4)CCO1` (stereo not shown) [Example 99, 5-Chloro-2-{[2-(2-methylpropyl)morpholin-4-yl]methyl}-7,8-dihydro-6H-spiro[[1,3]oxazolo[5,4-f]quinazoline-9,1′-cyclohexane]-7-one] is 100 to 1000 nM; for `O=C1Nc2c(Cl)cc3nc(CNCC(F)(F)C4CCC4)oc3c2C2(CCCCC2)N1` [Example 100, 5-Chloro-2-{[(2-cyclobutyl-2,2-difluoroethyl)amino]methyl}-7,8-dihydro-6H-spiro[[1,3]oxazolo[5,4-f]quinazoline-9,1′-cyclohexane]-7-one] it is 100 to 1000 nM. As to `CCC1COCCN1Cc1nc2cc(Cl)c3c(c2o1)C1(CCCCC1)NC(=O)N3` (stereo not shown) [Example 101, 5-Chloro-2-[(3-ethylmorpholin-4-yl)methyl]-7,8-dihydro-6H-spiro[[1,3]oxazolo[5,4-f]quinazoline-9,1′-cyclohexane]-7-one], the IC50 lay within 100 to 1000 nM. Take `O=C1Nc2c(Cl)cc3nc(CNCC(O)C4CCCCC4)oc3c2C2(CCCCC2)N1` (stereo not shown) [Example 102, 5-Chloro-2-{[(2-cyclohexyl-2-hydroxyethyl)amino]methyl}-7,8-dihydro-6H-spiro[[1,3]oxazolo[5,4-f]quinazoline-9,1′-cyclohexane]-7-one]: the IC50 was 100 to 1000 nM.

On to `O=C1Nc2c(Cl)cc3nc(CN4CCOC5(CCCC5)C4)oc3c2C2(CCCCC2)N1` [Example 103, 5-Chloro-2-{6-oxa-9-azaspiro[4.5]decan-9-ylmethyl}-7,8-dihydro-6H-spiro[[1,3]oxazolo[5,4-f]quinazoline-9,1′-cyclohexane]-7-one], for which the IC50 is 10 to 100 nM. With `CC(NCc1nc2cc(Cl)c3c(c2o1)C1(CCCCC1)NC(=O)N3)C1CCCCO1` (stereo not shown) [Example 104, 5-Chloro-2-({[1-(oxan-2-yl)ethyl]amino}methyl)-7,8-dihydro-6H-spiro[[1,3]oxazolo[5,4-f]quinazoline-9,1′-cyclohexane]-7-one], the IC50 fell in the range of 10 to 100 nM. For `O=C1Nc2c(Cl)cc3nc(CNCC4CCCCO4)oc3c2C2(CCCCC2)N1` (stereo not shown) [Example 105, 5-Chloro-2-{[(oxan-2-ylmethyl)amino]methyl}-7,8-dihydro-6H-spiro[[1,3]oxazolo[5,4-f]quinazoline-9,1′-cyclohexane]-7-one] the value was 10 to 100 nM. The figure for `CC(C)C(=O)CNCc1nc2cc(Cl)c3c(c2o1)C1(CCCCC1)NC(=O)N3` [Example 106, 5-Chloro-2-{[(3-methyl-2-oxobutyl)amino]methyl}-7,8-dihydro-6H-spiro[[1,3]oxazolo[5,4-f]quinazoline-9,1′-cyclohexane]-7-one] is 100 to 1000 nM; for `O=C1Nc2c(Cl)cc3nc(CNC4CCC(F)(F)CC4)oc3c2C2(CCCCC2)N1` [Example 107, 5-Chloro-2-{[(4,4-difluorocyclohexyl)amino]methyl}-7,8-dihydro-6H-spiro[[1,3]oxazolo[5,4-f]quinazoline-9,1′-cyclohexane]-7-one] it is 10 to 100 nM.

What is called IC50 is the concentration that gives 50% inhibition.
